Inconclusive means that the source gave no clear call. Such entries were picked first, then a sample of the others. For part of these data: Potencies of inconclusive entries are doubtful fits and often do not repeat. Calls of active or inactive are those of the source. Unless noted, calls come from the whole dose curve; as a rule, active = well fitted curve in the direction sought with a large enough effect in the repeat runs; inconclusive = weak or mixed curves; inactive = no such curve, though single readings can be large; an effect the other way counts as inactive or inconclusive.
Legend:
[1] = qHTS assay to identify aromatase inhibitors - cell viability counter screen (AID 743084); settings: MCF-7 aro ERE viability, CellTiter-Fluor, 24 h; activity change, negative = cytotoxicity: at 70.3 µM (top of the series);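 note: cells stimulated with testosterone during compound exposure; nearly all actives have a fitted effect of over 55% in size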; note: potency is the fitted concentration of half-maximal effect; for activity change, negative = cytotoxicity: % is set by controls: 0 for no effect and ±100 for the full control effect
[2] = biological target: Peroxisome proliferator-activated receptor gamma (Homo sapiens) (UniProt P37231); assay: qHTS assay to identify small molecule antagonists of the peroxisome proliferator-activated receptor gamma (PPARg) signaling pathway (AID 743191; calls by dose curve; note: % is set by controls: 0 for no effect and ±100 for the full control effect; nearly all actives have a fitted effect of over 30% in size); settings: HEK293H PPARg-UAS-bla, beta-lactamase ratio, antagonist, 17 h; ratio activity, negative = inhibition: at 62.6 µM (top of the series) unless noted
Method in brief: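 GeneBLAzer PPARg UAS-bla HEK293H cells carrying a UAS-driven beta-lactamase reporter were plated at 3000 cells/well, preincubated 5 h at 37C, then given compound for 17 h at 37C; LiveBLAzer B/G FRET substrate was read after 1 h at room temperature.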

[3] = qHTS assay to identify small molecule antagonists of the peroxisome proliferator-activated receptor gamma (PPARg) signaling pathway - cell viability counter screen (AID 743194); settings: PPARg-bla HEK293H viability, CellTiter-Glo luminescence, 17 h, co-treated with 50 nM rosiglitazone; activity change, negative = cytotoxicity: at 62.6 µM (top of the series); note: potency is the fitted concentration of half-maximal effect; nearly all actives have a fitted effect of over 55% in size
Method in brief: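 PPARg-UAS-bla HEK293H cells were plated, rested 5 h at 37 C, then treated with compounds plus rosiglitazone (50 nM final) for 17 h at 37 C; viability was then read by CellTiter-Glo luminescence after 30 min at room temperature.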

[4] = qHTS assay for small molecule agonists of the antioxidant response element (ARE) signaling pathway (AID 743202; active = well fitted activation curve with a large enough effect in the signal ratio in the repeat runs, not every such curve was filed as active; inconclusive = weak or mixed curves, or effect the other way; inactive = no such curve, though single readings can be large or run the other way; the % refers to the signal ratio; note: potency is the fitted concentration of half-maximal effect; for activation: % is set by controls: 0 for no effect and ±100 for the full control effect); settings: HepG2 ARE-bla reporter, beta-lactamase FRET, 16 h
Method in brief: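 Steps: seed ARE-bla HepG2 cells (2,000/well); incubate 5 h at 37 C; add compounds by pin tool; incubate 16 h at 37 C; add FRET substrate; read fluorescence after 2 h at RT.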

[5] = qHTS assay for small molecule activators of the heat shock response signaling pathway (AID 743210; active = well fitted activation curve with a large enough effect in the signal ratio in the repeat runs, with a control signal flat, not every such curve was filed as active; inconclusive = weak or mixed curves; the % refers to the signal ratio; note: potency is the fitted concentration of half-maximal effect); settings: HeLa HSE-bla reporter, beta-lactamase ratio, 5 h; activation: at 62.6 µM (top of the series)
Method in brief: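 Activation of heat shock element-controlled beta-lactamase expression is measured in HeLa cells by LiveBLAzer FRET fluorescence, with compound exposure lasting 5 h at 37 C and substrate loading 2.5 h at room temperature.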

[6] = qHTS assay to identify small molecule antagonists of the peroxisome proliferator-activated receptor delta (PPARd) signaling pathway - cell viability counter screen (AID 743213); settings: PPARd-bla HEK293H viability, CellTiter-Glo luminescence, 17 h; viability change, negative = cytotoxic: at 62 µM (top of the series) unless noted; note: % is set by controls: 0 for no effect and ±100 for the full control effect; nearly all actives have a fitted effect of over 50% in size
Method in brief: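 Viability counter-screen, qHTS format: PPARd-bla HEK293H, L165041 300 nM final, 17 h compound exposure at 37 C, CellTiter-Glo luminescence after 30 min RT.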

[7] = biological target: Bile acid receptor (Homo sapiens) (UniProt Q96RI1); assay: qHTS assay to identify small molecule antagonists of the farnesoid-X-receptor (FXR) signaling pathway (AID 743217; active = well fitted inhibition curve with a large enough effect in the signal ratio in the repeat runs, not every such curve was filed as active; inconclusive = weak or mixed curves, or effect the other way; inactive = no such curve, though single readings can be large or run the other way; the % refers to the signal ratio; note: potency is the fitted concentration of half-maximal effect; for activity change, negative = inhibition: % is set by controls: 0 for no effect and ±100 for the full control effect); settings: HEK293T FXR-UAS-bla, beta-lactamase ratio, CDCA-stimulated, 16 h; activity change, negative = inhibition: at 62.6 µM (top of the series) unless noted
Method in brief: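 Screen of the Tox21 10K library in quantitative HTS format using FXR-UAS-bla HEK 293T reporter cells. Agonist chenodeoxycholic acid, 50 uM final, added with compounds; 16 h incubation at 37 °C; beta-lactamase FRET fluorescence measured.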

[8] = biological target: Bile acid receptor (Homo sapiens) (UniProt Q96RI1); assay: qHTS assay to identify small molecule agonists of the farnesoid-X-receptor (FXR) signaling pathway (AID 743220; active = well fitted activation curve with a large enough effect in the signal ratio in the repeat runs, not every such curve was filed as active; inconclusive = weak or mixed curves, or effect the other way; the % refers to the signal ratio; note: potency is the fitted concentration of half-maximal effect); settings: HEK293T FXR-UAS-bla, beta-lactamase FRET ratio, 16 h; activation: at 62.6 µM (top of the series) unless noted
Method in brief: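 FXR-UAS-bla HEK 293T cells carrying a UAS-driven beta-lactamase reporter were plated for 5 h at 37C/5% CO2, then exposed to DMSO-dissolved Tox21 10K compounds for 16 h at 37C. A LiveBLAzer B/G FRET substrate was loaded for 2 h at room temperature before fluorescence reading.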

[9] = qHTS assay for small molecule activators of the heat shock response signaling pathway - cell viability counter screen (AID 743209); settings: HSE-bla HeLa viability, CellTiter-Glo luminescence, 5 h; activity change, negative = cytotoxicity: at 62.6 µM (top of the series); note: nearly all actives have a fitted effect of over 50% in size; note: potency is the fitted concentration of half-maximal effect
Method in brief: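 Viability of HSE-bla HeLa cells is measured with CellTiter-Glo in the wells already used for the reporter read. Compound exposure lasts 5 h at 37 C, and luminescence is read after 30 min at room temperature.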

[10] = biological target: Vitamin D3 receptor (Homo sapiens) (UniProt P11473); assay: qHTS assay to identify small molecule agonists of the vitamin D receptor (VDR) signaling pathway (AID 743222; calls by dose curve; note: % is set by controls: 0 for no effect and ±100 for the full control effect); settings: HEK293T VDR-UAS-bla, beta-lactamase FRET ratio, 16 h; activation: at 63.5 µM (top of the series) unless noted
Method in brief: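 Fluorescence from cleaved LiveBLAzer B/G FRET substrate served as readout. VDR-bla cells had been treated 16 h at 37C with test compounds in DMSO, following a 4 h settling period, and substrate was loaded for 2 h at RT.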

[11] = qHTS assay to identify small molecule agonists of the peroxisome proliferator-activated receptor delta (PPARd) signaling pathway - cell viability counter screen (AID 743211); settings: PPARd-bla HEK293H viability, CellTiter-Glo luminescence, 17 h; activity change, negative = cytotoxicity: at 62.6 µM (top of the series); note: potency is the fitted concentration of half-maximal effect; nearly all actives have a fitted effect of over 55% in size
Method in brief: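 Counter screen for cytotoxicity run in parallel with the PPARd reporter screen. Beta-lactamase reporter HEK293H cells exposed to compounds 17 h; ATP-based CellTiter-Glo luminescence quantified viability.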

[12] = qHTS assay to identify small molecule agonists of the farnesoid-X-receptor (FXR) signaling pathway - cell viability counter screen (AID 743218); settings: FXR-bla HEK293T viability, CellTiter-Glo luminescence, 16 h; viability change, negative = cytotoxic: at 62.6 µM (top of the series) unless noted; note: nearly all actives have a fitted effect of over 45% in size; note: potency is the fitted concentration of half-maximal effect
Method in brief: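 Viability of FXR-bla HEK 293T cells is measured by ATP-based CellTiter-Glo luminescence following 16 h compound treatment at 37 C and a prior 2 h room-temperature beta-lactamase substrate step.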

[13] = qHTS assay to identify small molecule antagonists of the farnesoid-X-receptor (FXR) signaling pathway - cell viability counter screen (AID 743221; active = well fitted cell-killing curve with a large enough effect in the repeat runs, not every such curve was filed as active; inconclusive = weak or mixed curves, or effect the other way; inactive = no such curve, though single readings can be large or run the other way; note: potency is the fitted concentration of half-maximal effect; nearly all actives have a fitted effect of over 50% in size); settings: FXR-bla HEK293T viability, CellTiter-Glo luminescence, 16 h; activity change, negative = cytotoxicity: at 62.6 µM (top of the series)
Method in brief: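 Multiplexed counter screen: viability of FXR-bla HEK 293T cells under agonist stimulation by chenodeoxycholic acid (50 uM, final) and test compound for 16 h at 37 C, measured by CellTiter-Glo luminescence in the reporter wells.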

[14] = activation: at 73.3 µM (top of the series) unless noted
Tags give direction and shape of the fitted curve or compound fluorescence and quenching.

Sequence of UniProt Q96RI1 (Q96RI1 whole entry, looked up): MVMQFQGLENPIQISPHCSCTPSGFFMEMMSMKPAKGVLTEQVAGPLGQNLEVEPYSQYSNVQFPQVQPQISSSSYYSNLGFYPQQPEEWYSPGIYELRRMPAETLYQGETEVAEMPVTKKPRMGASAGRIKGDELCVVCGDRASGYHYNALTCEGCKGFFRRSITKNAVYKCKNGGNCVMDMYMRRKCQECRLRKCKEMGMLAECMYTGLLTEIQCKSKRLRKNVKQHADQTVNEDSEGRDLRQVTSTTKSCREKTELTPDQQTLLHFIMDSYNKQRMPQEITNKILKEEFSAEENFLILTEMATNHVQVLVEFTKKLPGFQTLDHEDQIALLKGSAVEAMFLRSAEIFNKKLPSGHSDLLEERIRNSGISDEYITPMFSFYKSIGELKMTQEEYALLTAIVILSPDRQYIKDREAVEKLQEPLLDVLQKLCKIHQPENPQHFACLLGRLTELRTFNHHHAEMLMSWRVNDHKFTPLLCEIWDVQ
Sequence of UniProt P37231 (P37231 whole entry, looked up): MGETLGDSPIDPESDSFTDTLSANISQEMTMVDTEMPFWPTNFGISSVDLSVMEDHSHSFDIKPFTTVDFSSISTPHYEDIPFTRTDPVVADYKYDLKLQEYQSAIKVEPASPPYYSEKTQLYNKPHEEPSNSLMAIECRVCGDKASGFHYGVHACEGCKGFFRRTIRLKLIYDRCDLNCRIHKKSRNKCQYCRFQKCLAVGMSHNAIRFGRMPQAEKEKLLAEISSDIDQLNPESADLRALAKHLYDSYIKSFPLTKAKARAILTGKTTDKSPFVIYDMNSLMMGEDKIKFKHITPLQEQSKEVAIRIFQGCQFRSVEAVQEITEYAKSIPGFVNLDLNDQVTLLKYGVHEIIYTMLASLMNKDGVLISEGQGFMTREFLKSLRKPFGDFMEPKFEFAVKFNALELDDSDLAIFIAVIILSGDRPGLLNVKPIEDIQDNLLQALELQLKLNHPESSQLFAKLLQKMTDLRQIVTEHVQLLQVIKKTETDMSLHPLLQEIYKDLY
Sequence of UniProt P11473 (P11473 whole entry, looked up): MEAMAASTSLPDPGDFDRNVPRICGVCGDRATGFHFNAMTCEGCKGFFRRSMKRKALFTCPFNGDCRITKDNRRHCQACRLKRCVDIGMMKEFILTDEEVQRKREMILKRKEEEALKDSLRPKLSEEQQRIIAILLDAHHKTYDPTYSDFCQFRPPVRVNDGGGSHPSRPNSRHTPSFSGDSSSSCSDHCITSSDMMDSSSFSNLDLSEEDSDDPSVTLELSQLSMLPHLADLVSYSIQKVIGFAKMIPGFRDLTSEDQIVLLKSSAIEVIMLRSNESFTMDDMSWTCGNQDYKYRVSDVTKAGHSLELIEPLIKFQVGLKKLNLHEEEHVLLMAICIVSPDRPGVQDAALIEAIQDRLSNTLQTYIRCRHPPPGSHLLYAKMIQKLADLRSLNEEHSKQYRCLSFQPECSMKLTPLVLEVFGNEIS

Cc1ccccc1Cl
inconclusive: ratio activity, negative = inhibition [2] 18.3% [at 81.1 µM] | Potency [3] 3.89 µM [rising, full curve, poor fit] | activation [4, 14] 0.83% [at 94.8 µM] | Potency [5] 61.6 µM [rising, partial curve, poor fit] | activity change, negative = inhibition [7] -21.5% [at 81.1 µM] | Potency [8] 61.6 µM [rising, partial curve, poor fit]
inactive: Potency [1] | activation ([4]; at 73.3 µM (top of the series)) -3.08% | Potency [6]

NS(=O)(=O)c1cc2c(cc1Cl)NC(CC1CCCC1)NS2(=O)=O (centres undefined)
inactive: Potency [1] | Potency [2] | Potency [5] | Potency [7] | Potency [10]
inconclusive: Potency [9] 1.06 µM [cytotoxic, full curve, poor fit]

CC(=O)OCC=C(C)C
inconclusive: activation [4, 14] 8.1%
inactive: Potency [1] | Potency [2] | Potency [9]

CCCCCCCCCCCCOC(=O)c1ccc(O)cc1
inconclusive: Potency [1] 21.8 µM [cytotoxic, partial curve] | ratio activity, negative = inhibition [2] -0.029% [at 81.1 µM] | Potency [3] 55.4 µM [cytotoxic, single point] | Potency [4, 14] 43.6 µM [falling, partial curve, poor fit] | Potency [9] 1.1 µM [rising, single point] | Potency [5] 13.9 µM [falling, full curve] | Potency [8] 55.4 µM [single point] | Potency [13] 55.4 µM
active: Potency [11] 34.9 µM | Potency [7] 44 µM | Potency [12] 49.3 µM
inactive: Potency [6]

C=CC(=O)OCCOCCOCC
inactive: Potency [12]
inconclusive: Potency [1] 68.6 µM [cytotoxic] | activation [4, 14] 32.8% | Potency [9] 30.9 µM [cytotoxic, partial curve, poor fit] | Potency [5] 43.6 µM [falling, partial curve]

C=CCCC(=O)/C=C/C1C(C)=CCCC1(C)C (centres undefined)
inactive: Potency [2] | Potency [5]
inconclusive: Potency [1] 68.6 µM [cytotoxic, single point]

— PubChem BioAssay (Tox21)
